Assay results: the RNAGym collection of RNA variant scans (doi:10.7554/elife.90254)
The source gives no read counts; variants with many changes may rest on few reads.

B1: LINE1-mini (parent)
chain: GGCAGAGCUCAACACAGCGUGGCAAAGUGGCUGUGGCUAGACUGCC

Variants of: B1
Assay: self-cleavage, relative activity (ratio to wild type); higher = more cleavage; in vitro, sequencing; the parent is a self-cleaving ribozyme

Row | Variant | self-cleavage
1 | G19A G22A A26U | 0.45
2 | U20A G30U C46A | 0.23
3 | U20A G30U C46G | 0.12
4 | G19U A24U C45A | 0.28
5 | U20A G36A A39G | 0.03
6 | G19A U20G A24U G36U | 0.01
7 | U20C A24U C37U G44C | 0.05
8 | U20G A41U C45A | 0.33
9 | G19C G21C C37G | 0.04
10 | U20A G22A G27A | 1.69
11 | G19C A25C G27U | 0.72
12 | G19U G21U G40U | 0.12
13 | G19C G22U C31A A39G C45A | 0.2
14 | C18U G30U C37G G40U | 0.05
15 | G19C G21U G36U G44A C45A | 0.02
16 | C18U U32A G35A | 0.08
17 | U20G G22U A26G C46A | 0.3
18 | U20A A39U C42A | 0.1
19 | U20G G29A U34G C42U | 0.01
20 | U20C G22A G27A C37U G40U | 0.25
21 | U20A G22C A39U | 0.36
22 | G19A A25G U38C | 0.17
23 | C18U G29U C46G | 0.65
24 | U20A A24U G27C A41U | 0.15

Row | Variant | self-cleavage
25 | G19A G29U G30A | 0.31
26 | U20A U34C G36A A39G G40A | 0.03
27 | U20A G30A G35A | 0.1
28 | G19U U28A G36A A39G | 0.01
29 | U20A U28C A39C | 0.01
30 | G19C A26G U38G | 0.01
31 | G19C C37U A39G | 0.01
32 | U20C C23A G36U | 0.02
33 | U20C A26C G29C | 0.28
34 | G19C G22C C46U | 0.34
35 | G19C A25C G30U G40U | 0.17
36 | G19U A26G U34C C45A | 0.04
37 | U20C U28C G40A C42A | 0.66
38 | G19C G22A G30U G36A | 0.01
39 | G19C C23A G36U | 0.02
40 | U20C A25C G30U | 0.37
41 | G19U G29U G33U G40C | 0.02
42 | G19C A25G G33U C42U U43G | 0.01
43 | C18U G27U C45A | 0.48
44 | U20A U28A U38G | 0.03
45 | C18U G35U G36U U38A | 0.07
46 | U20G G22U G44U | 0.14
47 | C18U G33U G35U G40U C42A | 0.21
48 | G19A U43A C45G | 0.04

Row | Variant | self-cleavage
49 | U20A A24G A25C U34G | 0.13
50 | G19A U28G G29U | 0.63
51 | C18U G33U A39U U43C | 0.03
52 | G19A C31G G44U | 0.02
53 | U20G G21U C23U A41G | 0.27
54 | U20C C37U C46A | 0.64
55 | G19A G29U G33A U34A | 0.13
56 | U20G G27A C31A A39U | 0.28
57 | G19C U34A G36U | 0.02
58 | G19A G33C G36U | 0.03
59 | G19U U28G G30A | 1.28
60 | U20C C23A C37U | 0.01
61 | U20C C23A C37G | 0.14
62 | U20C G33C A41U | 0.12
63 | U20A C23U A24G C46A | 0.45
64 | U20A A26U G27C C37A U38C | 0.01
65 | U20A G22A U32C G35A C45A | 0.01
66 | G21A A24G C46G | 1.92
67 | C18U G29U C45U | 0.4
68 | G19C U32C A39G | 0.01
69 | U20G A24U U38C | 0.23
70 | U20C U43G C45A C46U | 0.01
71 | G19U G21U G33C U34C | 0
72 | C18U G35A C46U | 0.02

Row | Variant | self-cleavage
73 | G19U G29A G33A C42U | 0.06
74 | G19A A24G C37A C45G | 0.05
75 | G21A A24G A41U | 1.26
76 | C18U G29U C31G | 0.06
77 | G19C C23G C45U C46A | 0.21
78 | G19A G21U U43A | 0.01
79 | G19A G35C C42G | 0.04
80 | G19U U34A C37U | 0.06
81 | G19C G40A A41U | 0.14
82 | G19C G22C G35C | 0.02
83 | U20G U34C G40U | 0.07
84 | G19A U20C A24U U32A C46U | 0.73
85 | U20G G36U A41G | 0.05
86 | U20C A25U G27U U32C | 0.02
87 | C18U G35U C37A G44A | 0.03
88 | G19U G27U A41U | 0.27
89 | U20G A24C G35U | 0.03
90 | U20C U38A G44A | 0.16
91 | G19C C31G C46U | 0.26
92 | C18U U20A A24U A26U | 1.07
93 | C18U G29A U32C | 0.26
94 | U20A A26G U43C | 0.01
95 | G19A G22U A26G C31G | 0.09
96 | U20C C23A G29A | 0.33

Row | Variant | self-cleavage
97 | U20A G22C G40U | 0.09
98 | C18U G35C C42U | 0.01
99 | G19C A24U G30A G44C | 0.08
100 | G19C U34A C45A | 0.03
101 | U20A C23U C46A | 0.92
102 | G19A C31A A39G | 0.03
103 | C18U G44U C45G | 0.06
104 | U20A A25G A26C C31G U38A | 0.02
105 | U20C C42U C46G | 0.05
106 | G19U A26U U32G | 0.06
107 | U20A G30A G33U C37U | 0.02
108 | U20A G21U G40C | 0.03
109 | G19A G21A G29C G40U | 0.14
110 | G19C G35U C42G U43G | 0
111 | G19A A25C U28G | 0.89
112 | U20G G21U G33U C37G | 0.02
113 | G19C G22C G35A G44A | 0.07
114 | U20C U28C U32C G44A | 0.02
115 | G19C G29A U32A | 0.17
116 | G19A G22C G30U | 0.56
117 | G19U A25C A41U | 0.15
118 | U20G C37A G44U | 0.04
119 | U20C C31U A41C C45A | 0.02
120 | G19A G21A C31G G36A | 0.05

Row | Variant | self-cleavage
121 | U20C G40A A41C C45U | 0.06
122 | U20C G21A C31G | 0.12
123 | G19C A39G U43G G44A | 0.01
124 | U20A A25G G29A | 1.22
125 | G19A G21U C31A U34G | 0.02
126 | G19U G22C A24C | 0.3
127 | U20G U32C G36A C42U C46A | 0.02
128 | C18U U32C A41C | 0.02
129 | U20C G30U U32G | 0.54
130 | G19U C23G C37A | 0.02
131 | G19U C37U U43C | 0.05
132 | G19U C23A G33A | 0.32
133 | U20G A25C G27C A41U C42U | 0.05
134 | U20A U38A U43A | 0
135 | G19C U20A A26G | 0.2
136 | G19C U20G C37U | 0.04
137 | G19U G21C C23A | 2.49
138 | C18U U20C A26U C46U | 1.59
139 | C18U G30U U38C A41G | 0.11
140 | U20A G22U U32A | 0.1
141 | U20G A26U G40U U43G | 0.03
142 | G19C U20C G40A | 0.06
143 | G19A G22U A24C G27C U28A C31U U32C G36A A41U | 0.06
144 | G19U G29C C46U | 0.98

Row | Variant | self-cleavage
145 | G19A A25U G33U G35U C45U | 0.08
146 | U20C G21C G22U | 0.07
147 | G19U G30A A39U C42U G44A | 0.05
148 | U20C A25C G29A C46G | 0.31
149 | G19A U34G U43A | 0.02
150 | G19U G27U G30A C46U | 0.97
151 | U20C U28A U32G | 0.09
152 | G19U U32A U34A A39U | 0.07
153 | G19A C45U C46U | 1.83
154 | G19U U32C C46A | 0.21
155 | U20G U34G A41U | 0.07
156 | U20C G21U C31U | 0.37
157 | G21A A24C U28A C42A | 0.32
158 | C18U U43A C46G | 0.03
159 | U20C U28A G29A | 0.29
160 | U20A G27C U28C U32C C45A | 0.01
161 | G19C C31G G35C U38C | 0.05
162 | U20A C31A U34G G44C | 0.02
163 | G19A A41U C45U C46U | 0.39
164 | U20A U32G C37U | 0
165 | G19U U32A G35C A41U C42U | 0.01
166 | G19C G22U G40C | 0.06
167 | G19U A24U G29A C31G G35A | 0.08
